These are yes or no findings as the source states them, for the method shown. In cells and extracts the contact can be indirect. Some entries that bind do so weakly or less than the wild type. Tags and fused reporters may be left off the sequences shown. Each block holds one molecule with its values, some of them ahead of it.
Columns and labels:
PPP4C-V5 = target: T1, PPP4C-V5 (UniProt P60510); assay: co-IP; IP with a V5 antibody from lysates of RPE1 cells expressing PPP4C-V5, FBXO42-Myc and CCDC6-6xHis; WT, FBXO42-/- and CCDC6-/- cells; western blot
T1 sequence: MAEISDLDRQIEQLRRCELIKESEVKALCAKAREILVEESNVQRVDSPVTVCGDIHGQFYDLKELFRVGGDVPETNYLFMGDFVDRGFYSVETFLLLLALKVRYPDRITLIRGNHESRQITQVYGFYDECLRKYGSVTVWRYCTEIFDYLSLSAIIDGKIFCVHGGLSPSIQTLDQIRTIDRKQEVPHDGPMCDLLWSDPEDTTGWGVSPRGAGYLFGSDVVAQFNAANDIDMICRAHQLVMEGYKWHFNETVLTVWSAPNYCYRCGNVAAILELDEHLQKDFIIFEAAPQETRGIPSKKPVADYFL

Sequences of proteins named here, by UniProt entry; tags and fusion partners are left off.
UniProt Q6P3S6: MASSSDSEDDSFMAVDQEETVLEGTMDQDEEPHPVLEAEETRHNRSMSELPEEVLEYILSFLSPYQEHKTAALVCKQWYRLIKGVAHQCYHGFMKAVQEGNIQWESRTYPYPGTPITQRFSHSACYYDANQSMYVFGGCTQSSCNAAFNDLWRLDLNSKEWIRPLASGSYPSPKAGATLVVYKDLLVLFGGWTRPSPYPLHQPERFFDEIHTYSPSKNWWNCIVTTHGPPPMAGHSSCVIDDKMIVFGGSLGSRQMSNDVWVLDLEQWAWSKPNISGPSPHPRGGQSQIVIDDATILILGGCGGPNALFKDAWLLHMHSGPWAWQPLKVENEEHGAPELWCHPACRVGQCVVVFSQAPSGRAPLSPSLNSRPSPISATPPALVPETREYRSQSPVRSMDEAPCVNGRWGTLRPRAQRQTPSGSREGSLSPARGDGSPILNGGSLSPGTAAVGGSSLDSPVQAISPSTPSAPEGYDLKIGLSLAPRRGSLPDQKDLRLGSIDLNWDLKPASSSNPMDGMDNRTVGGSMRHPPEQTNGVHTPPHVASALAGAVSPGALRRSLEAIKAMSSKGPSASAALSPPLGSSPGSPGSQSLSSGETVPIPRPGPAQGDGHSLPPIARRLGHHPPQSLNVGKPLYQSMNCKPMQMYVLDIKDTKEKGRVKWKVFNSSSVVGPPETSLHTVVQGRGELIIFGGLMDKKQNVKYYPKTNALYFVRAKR

[1] = target: T2, 3xFLAG-His tagged CCDC6, wild type (UniProt Q16204); assay: co-IP; IP with anti-FLAG antibody crosslinked to beads from lysates of CCDC6 knock-out RPE1 cells with doxycycline-induced (2 ug/ml) 3xFLAG-His CCDC6 constructs; PP4 subunits endogenous; western blot
T2 sequence: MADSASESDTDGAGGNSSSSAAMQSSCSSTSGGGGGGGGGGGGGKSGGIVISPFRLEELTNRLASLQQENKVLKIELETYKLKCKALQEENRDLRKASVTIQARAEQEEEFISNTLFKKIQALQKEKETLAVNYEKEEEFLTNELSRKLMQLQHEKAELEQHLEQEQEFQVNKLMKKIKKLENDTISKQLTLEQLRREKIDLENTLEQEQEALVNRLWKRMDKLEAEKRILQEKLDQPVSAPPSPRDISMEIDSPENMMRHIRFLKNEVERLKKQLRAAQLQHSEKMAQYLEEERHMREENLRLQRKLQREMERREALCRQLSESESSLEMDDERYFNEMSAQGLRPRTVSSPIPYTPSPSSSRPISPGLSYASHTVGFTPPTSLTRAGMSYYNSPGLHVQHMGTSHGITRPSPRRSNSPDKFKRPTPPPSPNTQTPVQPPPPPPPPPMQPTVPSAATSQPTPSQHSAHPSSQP

[2] = target: T3, 3xFLAG-His tagged CCDC6 F423A (UniProt Q16204); assay: as above
T3 sequence: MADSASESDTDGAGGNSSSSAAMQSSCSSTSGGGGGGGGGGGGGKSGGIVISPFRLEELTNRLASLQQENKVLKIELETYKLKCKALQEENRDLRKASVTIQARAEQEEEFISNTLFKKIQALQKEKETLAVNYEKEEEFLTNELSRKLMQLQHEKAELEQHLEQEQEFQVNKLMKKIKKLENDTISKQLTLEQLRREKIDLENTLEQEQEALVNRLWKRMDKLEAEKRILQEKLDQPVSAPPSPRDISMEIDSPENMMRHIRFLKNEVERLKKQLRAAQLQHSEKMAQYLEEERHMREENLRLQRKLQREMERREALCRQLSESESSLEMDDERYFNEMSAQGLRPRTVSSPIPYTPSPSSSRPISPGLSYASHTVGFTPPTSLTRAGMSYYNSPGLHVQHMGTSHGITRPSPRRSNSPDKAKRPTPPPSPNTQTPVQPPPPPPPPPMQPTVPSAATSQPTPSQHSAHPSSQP

[3] = target: T4, 3xFLAG-His tagged CCDC6 “1A” variant (UniProt Q16204); assay: as above
T4 sequence: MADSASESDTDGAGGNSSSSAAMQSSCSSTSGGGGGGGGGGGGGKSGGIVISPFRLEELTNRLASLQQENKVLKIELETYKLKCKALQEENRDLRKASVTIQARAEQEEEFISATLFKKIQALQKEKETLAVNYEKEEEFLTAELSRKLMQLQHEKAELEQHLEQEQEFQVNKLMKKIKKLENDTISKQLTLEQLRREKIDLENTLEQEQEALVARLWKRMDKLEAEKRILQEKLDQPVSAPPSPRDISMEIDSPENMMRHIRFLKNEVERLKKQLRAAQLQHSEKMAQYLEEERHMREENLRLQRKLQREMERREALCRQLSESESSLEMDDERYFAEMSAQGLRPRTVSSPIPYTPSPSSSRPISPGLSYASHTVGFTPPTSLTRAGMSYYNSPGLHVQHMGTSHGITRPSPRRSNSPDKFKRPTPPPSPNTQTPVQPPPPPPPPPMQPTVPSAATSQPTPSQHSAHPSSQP

[4] = target: T5, 3xFLAG-His tagged CCDC6 “All A” variant (UniProt Q16204); assay: as above
T5 sequence: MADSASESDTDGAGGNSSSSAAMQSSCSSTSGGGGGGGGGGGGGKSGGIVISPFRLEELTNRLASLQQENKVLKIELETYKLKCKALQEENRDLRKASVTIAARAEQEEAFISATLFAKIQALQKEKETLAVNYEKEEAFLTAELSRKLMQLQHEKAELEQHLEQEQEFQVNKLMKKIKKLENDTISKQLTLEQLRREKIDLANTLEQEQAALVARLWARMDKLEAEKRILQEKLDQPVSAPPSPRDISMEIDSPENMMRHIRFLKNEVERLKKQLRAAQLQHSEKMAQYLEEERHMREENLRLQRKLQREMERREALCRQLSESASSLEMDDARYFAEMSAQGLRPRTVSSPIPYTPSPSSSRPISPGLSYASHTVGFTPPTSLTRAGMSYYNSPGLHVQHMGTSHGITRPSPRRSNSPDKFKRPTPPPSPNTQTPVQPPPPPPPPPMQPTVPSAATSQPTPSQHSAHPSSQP

[5] = target: T6, 3xFLAG-His tagged CCDC6, wild type, Q16204; assay: as above; details: remark: other sources report otherwise
T6 chain: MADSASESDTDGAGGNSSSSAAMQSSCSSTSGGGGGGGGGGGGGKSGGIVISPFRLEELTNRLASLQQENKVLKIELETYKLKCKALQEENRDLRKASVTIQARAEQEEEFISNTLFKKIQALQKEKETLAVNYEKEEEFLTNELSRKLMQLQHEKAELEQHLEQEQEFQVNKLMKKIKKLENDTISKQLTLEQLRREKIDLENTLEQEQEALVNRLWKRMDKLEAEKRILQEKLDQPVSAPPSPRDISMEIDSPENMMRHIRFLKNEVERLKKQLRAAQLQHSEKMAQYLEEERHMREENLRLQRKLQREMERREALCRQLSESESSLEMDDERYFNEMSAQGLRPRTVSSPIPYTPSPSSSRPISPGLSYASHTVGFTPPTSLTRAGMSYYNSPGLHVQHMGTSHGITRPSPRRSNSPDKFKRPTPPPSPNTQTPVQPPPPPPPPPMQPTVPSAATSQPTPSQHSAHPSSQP

binding (PPP4C-V5): binds
Molecule: FBXO42-Myc (from UniProt Q6P3S6 1-717)

binding [1]: no binding
Molecule: PPP4R3B (endogenous, RPE1 cells) (from UniProt Q5MIZ7 1-849)

binding [2]: binds
binding [3]: no binding
binding [4]: no binding
binding [1]: binds
B1: PPP4R1 (endogenous, RPE1 cells) (protein, UniProt Q8TF05 1-950)
chain: MADLSLLQEDLQEDADGFGVDDYSSESDVIIIPSALDFVSQDEMLTPLGRLDKYAASENIFNRQMVARSLLDTLREVCDDERDCIAVLERISRLADDSEPTVRAELMEQVPHIALFCQENRPSIPYAFSKFLLPIVVRYLADQNNQVRKTSQAALLALLEQELIERFDVETKVCPVLIELTAPDSNDDVKTEAVAIMCKMAPMVGKDITERLILPRFCEMCCDCRMFHVRKVCAANFGDICSVVGQQATEEMLLPRFFQLCSDNVWGVRKACAECFMAVSCATCQEIRRTKLSALFINLISDPSRWVRQAAFQSLGPFISTFANPSSSGQYFKEESKSSEEMSVENKNRTRDQEAPEDVQVRPEDTPSDLSVSNSSVILENTMEDHAAEASGKPLGEISVPLDSSLLCTLSSESHQEAASNENDKKPGNYKSMLRPEVGTTSQDSALLDQELYNSFHFWRTPLPEIDLDIELEQNSGGKPSPEGPEEESEGPVPSSPNITMATRKELEEMIENLEPHIDDPDVKAQVEVLSAALRASSLDAHEETISIEKRSDLQDELDINELPNCKINQEDSVPLISDAVENMDSTLHYIHSDSDLSNNSSFSPDEERRTKVQDVVPQALLDQYLSMTDPSRAQTVDTEIAKHCAYSLPGVALTLGRQNWHCLRETYETLASDMQWKVRRTLAFSIHELAVILGDQLTAADLVPIFNGFLKDLDEVRIGVLKHLHDFLKLLHIDKRREYLYQLQEFLVTDNSRNWRFRAELAEQLILLLELYSPRDVYDYLRPIALNLCADKVSSVRWISYKLVSEMVKKLHAATPPTFGVDLINELVENFGRCPKWSGRQAFVFVCQTVIEDDCLPMDQFAVHLMPHLLTLANDRVPNVRVLLAKTLRQTLLEKDYFLASASCHQEAVEQTIMALQMDRDSDVKYFASIHPASTKISEDAMSTASSTY

binding [5]: no binding
B2: PPP4R3A (endogenous, RPE1 cells), Q6IN85 1-833 (protein)
chain: MTDTRRRVKVYTLNEDRQWDDRGTGHVSSGYVERLKGMSLLVRAESDGSLLLESKINPNTAYQKQQDTLIVWSEAENYDLALSFQEKAGCDEIWEKICQVQGKDPSVDITQDLVDESEEERFDDMSSPGLELPSCELSRLEEIAELVASSLPSPLRREKLALALENEGYIKKLLELFHVCEDLENIEGLHHLYEIIKGIFLLNRTALFEVMFSEECIMDVIGCLEYDPALSQPRKHREFLTKTAKFKEVIPISDPELKQKIHQTYRVQYIQDMVLPTPSVFEENMLSTLHSFIFFNKVEIVGMLQEDEKFLTDLFAQLTDEATDEEKRQELVNFLKEFCAFSQTLQPQNRDAFFKTLSNMGILPALEVILGMDDTQVRSAATDIFSYLVEYNPSMVREFVMQEAQQNDDVSKKLTEQKITSKDILLINLIIEHMICDTDPELGGAVQLMGLLRTLVDPENMLATANKTEKTEFLGFFYKHCMHVLTAPLLANTTEDKPSKDDFQTAQLLALVLELLTFCVEHHTYHIKNYIINKDILRRVLVLMASKHAFLALCALRFKRKIIGLKDEFYNRYIMKSFLFEPVVKAFLNNGSRYNLMNSAIIEMFEFIRVEDIKSLTAHVIENYWKALEDVDYVQTFKGLKLRFEQQRERQDNPKLDSMRSILRNHRYRRDARTLEDEEEMWFNTDEDDMEDGEAVVSPSDKTKNDDDIMDPISKFMERKKLKESEEKEVLLKTNLSGRQSPSFKLSLSSGTKTNLTSQSSTTNLPGSPGSPGSPGSPGSPGSVPKNTSQTAAITTKGGLVGLVDYPDDDEDDDEDEDKEDTLPLSKKAKFDS

binding [1]: no binding
B3: PPP4R2 (endogenous, RPE1 cells) (protein, UniProt Q9NY27 1-417)
chain: MDVERLQEALKDFEKRGKKEVCPVLDQFLCHVAKTGETMIQWSQFKGYFIFKLEKVMDDFRTSAPEPRGPPNPNVEYIPFDEMKERILKIVTGFNGIPFTIQRLCELLTDPRRNYTGTDKFLRGVEKNVMVVSCVYPSSEKNNSNSLNRMNGVMFPGNSPSYTERSNINGPGTPRPLNRPKVSLSAPMTTNGLPESTDSKEANLQQNEEKNHSDSSTSESEVSSVSPLKNKHPDEDAVEAEGHEVKRLRFDKEGEVRETASQTTSSEISSVMVGETEASSSSQDKDKDSRCTRQHCTEEDEEEDEEEEEESFMTSREMIPERKNQEKESDDALTVNEETSEENNQMEESDVSQAEKDLLHSEGSENEGPVSSSSSDCRETEELVGSNSSKTGEILSESSMENDDEATEVTDEPMEQD

binding [2]: binds
binding [3]: no binding
binding [4]: no binding
binding [1]: binds
B4: PPP4C (endogenous, RPE1 cells) (protein, UniProt P60510 1-307)
chain: MAEISDLDRQIEQLRRCELIKESEVKALCAKAREILVEESNVQRVDSPVTVCGDIHGQFYDLKELFRVGGDVPETNYLFMGDFVDRGFYSVETFLLLLALKVRYPDRITLIRGNHESRQITQVYGFYDECLRKYGSVTVWRYCTEIFDYLSLSAIIDGKIFCVHGGLSPSIQTLDQIRTIDRKQEVPHDGPMCDLLWSDPEDTTGWGVSPRGAGYLFGSDVVAQFNAANDIDMICRAHQLVMEGYKWHFNETVLTVWSAPNYCYRCGNVAAILELDEHLQKDFIIFEAAPQETRGIPSKKPVADYFL

binding (PPP4C-V5): binds
B5: CCDC6-6xHis (protein, UniProt Q16204 1-474)
chain: MADSASESDTDGAGGNSSSSAAMQSSCSSTSGGGGGGGGGGGGGKSGGIVISPFRLEELTNRLASLQQENKVLKIELETYKLKCKALQEENRDLRKASVTIQARAEQEEEFISNTLFKKIQALQKEKETLAVNYEKEEEFLTNELSRKLMQLQHEKAELEQHLEQEQEFQVNKLMKKIKKLENDTISKQLTLEQLRREKIDLENTLEQEQEALVNRLWKRMDKLEAEKRILQEKLDQPVSAPPSPRDISMEIDSPENMMRHIRFLKNEVERLKKQLRAAQLQHSEKMAQYLEEERHMREENLRLQRKLQREMERREALCRQLSESESSLEMDDERYFNEMSAQGLRPRTVSSPIPYTPSPSSSRPISPGLSYASHTVGFTPPTSLTRAGMSYYNSPGLHVQHMGTSHGITRPSPRRSNSPDKFKRPTPPPSPNTQTPVQPPPPPPPPPMQPTVPSAATSQPTPSQHSAHPSSQP

Source: article PMC13458699
